“And” between values parts separate entries of the source, which are not always exact repeats. Identical values can stand only once. Inconclusive means that the source gave no clear call. Such entries were picked first, then a sample of the others. For some of these results: Potencies of inconclusive entries are doubtful fits and often do not repeat. The source made the active and inactive calls. Unless noted, the call rests on the fitted dose curve.
How the values were obtained:
[1] = target: Bile acid receptor (Homo sapiens) (UniProt Q96RI1); test: qHTS assay to identify small molecule antagonists of the farnesoid-X-receptor (FXR) signaling pathway (AID 743217; active means well fitted inhibition curve with a large enough effect in the signal ratio in the repeat runs, not every such curve was filed as active; inconclusive means weak or mixed curves, or effect the other way; inactive means no such curve, though single readings can be large or run the other way; the % refers to the signal ratio); details: HEK293T FXR-UAS-bla, beta-lactamase ratio, CDCA-stimulated, 16 h; activity change, negative = inhibition: at 62.6 µM (top of the series) unless noted
Chain of UniProt Q96RI1 (Q96RI1 whole entry, looked up): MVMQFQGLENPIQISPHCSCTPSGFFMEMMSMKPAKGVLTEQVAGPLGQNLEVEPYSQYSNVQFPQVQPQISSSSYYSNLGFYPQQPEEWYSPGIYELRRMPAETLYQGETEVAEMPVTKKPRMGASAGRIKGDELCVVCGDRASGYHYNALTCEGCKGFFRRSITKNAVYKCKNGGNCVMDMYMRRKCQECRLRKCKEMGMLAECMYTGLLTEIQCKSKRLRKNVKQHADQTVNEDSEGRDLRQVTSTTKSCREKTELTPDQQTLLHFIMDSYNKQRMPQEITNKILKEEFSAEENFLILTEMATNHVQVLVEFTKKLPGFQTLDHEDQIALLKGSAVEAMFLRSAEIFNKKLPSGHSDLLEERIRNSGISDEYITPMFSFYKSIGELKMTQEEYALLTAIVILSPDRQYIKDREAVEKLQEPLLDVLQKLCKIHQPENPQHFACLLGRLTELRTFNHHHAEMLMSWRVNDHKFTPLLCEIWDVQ
How it was run: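 FRET fluorescence after 2 h room-temperature LiveBLAzer loading gives the readout. Prior step: FXR-bla HEK 293T cells, seeded and incubated 5 h, received test compounds plus 50 uM final CDCA for 16 h at 37 °C.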

[2] = qHTS assay to identify small molecule agonists of the farnesoid-X-receptor (FXR) signaling pathway - cell viability counter screen (AID 743218; active means well fitted curve in the direction sought with a large enough effect in the repeat runs; inconclusive means weak or mixed curves; inactive means no such curve, though single readings can be large; an effect the other way counts as inactive or inconclusive; further: nearly all actives have a fitted effect of over 45% in size); details: FXR-bla HEK293T viability, CellTiter-Glo luminescence, 16 h; viability change, negative = cytotoxic: at 62.6 µM (top of the series) unless noted
How it was run: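 Readout: CellTiter-Glo luminescence, 30 min RT, multiplexed after the FXR-bla FRET reading. HEK 293T FXR-UAS-bla cells received compound 5 h post-plating and were incubated 16 h at 37 C.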

[3] = target: Vitamin D3 receptor (Homo sapiens) (UniProt P11473); test: qHTS assay to identify small molecule antagonists of the vitamin D receptor (VDR) signaling pathway (AID 743223; active means well fitted inhibition curve with a large enough effect in the signal ratio in the repeat runs, not every such curve was filed as active; inconclusive means weak or mixed curves, or effect the other way; inactive means no such curve, though single readings can be large or run the other way; the % refers to the signal ratio; on activity change, negative = inhibition: on the % scale 0 is the no-effect control and ±100 the full control effect); details: VDR-UAS-bla HEK293T, beta-lactamase FRET ratio, 16 h; activity change, negative = inhibition: at 61 µM (top of the series) unless noted
Chain of UniProt P11473 (P11473 whole entry, looked up): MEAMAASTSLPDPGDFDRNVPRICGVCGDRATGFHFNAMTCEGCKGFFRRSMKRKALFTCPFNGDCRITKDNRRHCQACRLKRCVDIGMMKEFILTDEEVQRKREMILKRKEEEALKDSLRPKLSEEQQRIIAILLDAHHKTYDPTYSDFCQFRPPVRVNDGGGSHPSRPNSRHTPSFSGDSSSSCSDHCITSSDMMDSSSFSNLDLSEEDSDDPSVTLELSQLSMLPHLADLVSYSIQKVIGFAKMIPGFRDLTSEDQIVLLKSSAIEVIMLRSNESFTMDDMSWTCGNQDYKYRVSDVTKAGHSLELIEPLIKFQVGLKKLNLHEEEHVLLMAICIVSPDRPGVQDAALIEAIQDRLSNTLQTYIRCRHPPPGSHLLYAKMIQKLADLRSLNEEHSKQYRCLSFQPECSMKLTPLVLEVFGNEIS
How it was run: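 Antagonist mode: compound added to VDR-bla cells alongside agonist 1alpha,25-dihydroxyvitamin D3 (3 nM final), incubation 16 h at 37C. Read-out is LiveBLAzer FRET fluorescence, 2 h at room temperature.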

[4] = qHTS assay to identify small molecule agonists of the vitamin D receptor (VDR) signaling pathway - cell viability counter screen (AID 743224; active means well fitted curve in the direction sought with a large enough effect in the repeat runs; inconclusive means weak or mixed curves; inactive means no such curve, though single readings can be large; an effect the other way counts as inactive or inconclusive; further: nearly all actives have a fitted effect of over 50% in size); details: VDR-bla HEK293T viability, CellTiter-Glo luminescence, 16 h; activity change, negative = cytotoxicity: at 62.6 µM (top of the series)
How it was run: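 In parallel with the bla FRET readout, cytotoxicity toward VDR-bla cells after 16 h compound exposure was assessed by CellTiter-Glo, with luminescence recorded after a 30 min room-temperature incubation.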

[5] = qHTS assay to identify small molecule antagonists of the vitamin D receptor (VDR) signaling pathway - cell viability counter screen (AID 743225; active means well fitted curve in the direction sought with a large enough effect in the repeat runs; inconclusive means weak or mixed curves; inactive means no such curve, though single readings can be large; an effect the other way counts as inactive or inconclusive; further: nearly all actives have a fitted effect of over 50% in size; on viability change, negative = cytotoxic: on the % scale 0 is the no-effect control and ±100 the full control effect); details: VDR-bla HEK293T viability, CellTiter-Glo luminescence, 16 h; viability change, negative = cytotoxic: at 61 µM (top of the series) unless noted
How it was run: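 Cytotoxicity counter screen read by CellTiter-Glo luminescence (30 min, room temperature) in the same wells as the VDR-bla antagonist readout. HEK 293T VDR-UAS-bla cells had 16 h at 37C with compound and 3 nM (final) 1-alpha,25-dihydroxyvitamin D3, then 2 h with FRET substrate.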

[6] = qHTS assay to identify small molecule agonists of the endoplasmic reticulum stress response signaling pathway - cell viability counter screen (AID 1159517); further: nearly all actives have a fitted effect of over 50% in size;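 on activity change, negative = cytotoxicity: HeLa cells carrying an ER stress response element beta-lactamase reporter; on the % scale 0 is the no-effect control and ±100 the full control effect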
How it was run: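 Cpd-treated ESRE-bla HeLa (5 hr, 37 C) → LiveBLAzer 2 hr RT → CellTiter-Glo 30 min RT → luminescence.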

[7] = qHTS assay to identify small molecule antagonists of the retinoid-related orphan receptor gamma (ROR-gamma) signaling pathway - cell viability counter screen (AID 1159520; active means well fitted curve in the direction sought with a large enough effect in the repeat runs; inconclusive means weak or mixed curves; inactive means no such curve, though single readings can be large; an effect the other way counts as inactive or inconclusive; further: nearly all actives have a fitted effect of over 50% in size)
How it was run: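 Tet-on ROR gamma CHO cells (1,000/well) were plated 4 hr, given compounds in DMSO for 2 hr at 37 C, then induced with 1 uM final doxycycline for 16 hr. Viability was read as ATP by CellTiter-Glo luminescence after 30 min.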

[8] = qHTS assay to identify small molecule agonists of the AP-1 signaling pathway - cell viability counter screen (AID 1159525); further: nearly all actives have a fitted effect of over 55% in size
How it was run: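 Each titration point was normalised to DMSO and tetra n-octyl ammonium bromide controls. The read was Cell Titer Glo luminescence after 30 min at RT, following 5 h compound exposure of ME-180 AP-1-bla cells at 37 °C.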

[9] = qHTS assay to identify small molecule agonists of the AP-1 signaling pathway (AID 1159526); details: ME-180 (cervical carcinoma) AP-1-bla reporter, beta-lactamase FRET ratio, 5 h; activation: at 76.8 µM (top of the series) unless noted
[10] = target: Retinoic acid receptor RXR-alpha (Homo sapiens) (UniProt P19793); test: qHTS assay to identify small molecule agonists of the RXR signaling pathway (AID 1159527); details: HEK293T RXRa-UAS-bla, beta-lactamase ratio, 16 h; activation: at 76.8 µM (top of the series) unless noted; further: nearly all actives have a fitted effect of over 35% in size; on activation: on the % scale 0 is the no-effect control and ±100 the full control effect
Chain of UniProt P19793 (P19793 whole entry, looked up): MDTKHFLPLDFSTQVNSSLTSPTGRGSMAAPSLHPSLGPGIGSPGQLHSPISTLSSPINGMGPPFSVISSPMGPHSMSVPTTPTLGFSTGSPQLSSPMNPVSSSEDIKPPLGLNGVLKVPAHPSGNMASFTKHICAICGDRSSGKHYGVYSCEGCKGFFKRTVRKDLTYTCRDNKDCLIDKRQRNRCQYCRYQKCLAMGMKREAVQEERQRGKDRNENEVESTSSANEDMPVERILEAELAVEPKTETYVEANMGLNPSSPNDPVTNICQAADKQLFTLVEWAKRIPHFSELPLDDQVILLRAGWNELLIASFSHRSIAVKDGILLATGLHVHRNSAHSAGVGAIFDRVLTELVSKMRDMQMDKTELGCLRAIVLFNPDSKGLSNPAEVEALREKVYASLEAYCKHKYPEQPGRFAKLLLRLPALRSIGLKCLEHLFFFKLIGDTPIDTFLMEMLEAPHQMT
How it was run: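 Agonist-mode beta-lactamase reporter assay: HEK 293T RXR-alpha-UAS-bla cells treated 16 hr at 37 C with compounds, 9-cis retinoic acid as positive control. LiveBLAzer FRET substrate, 405 nm excitation, 460/530 nm emission.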

[11] = qHTS assay to identify small molecule agonists of the RXR signaling pathway - cell viability counter screen (AID 1159529; active means well fitted curve in the direction sought with a large enough effect in the repeat runs; inconclusive means weak or mixed curves; inactive means no such curve, though single readings can be large; an effect the other way counts as inactive or inconclusive; further: nearly all actives have a fitted effect of over 50% in size)
How it was run: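 CellTiter-Glo luminescence gave viability in the wells also read for beta-lactamase. Cells (RXR-alpha-UAS-bla HEK 293T, 2% charcoal-stripped FBS medium) had 5 hr plating, then 16 hr compound exposure at 37 C; tetraoctyl ammonium bromide served as positive control.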

[12] = target: Peroxisome proliferator-activated receptor delta (Homo sapiens) (UniProt Q03181); test: qHTS assay to identify small molecule antagonists of the peroxisome proliferator-activated receptor delta (PPARd) signaling pathway (AID 743215; active means well fitted inhibition curve with a large enough effect in the signal ratio in the repeat runs, not every such curve was filed as active; inconclusive means weak or mixed curves, or effect the other way; inactive means no such curve, though single readings can be large or run the other way; the % refers to the signal ratio;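 further: cells stimulated with agonist L165041 at 300 nM final during compound exposure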); details: HEK293H PPARd-UAS-bla, beta-lactamase FRET ratio, antagonist, 17 h; ratio activity, negative = inhibition: at 62 µM (top of the series) unless noted
Chain of UniProt Q03181 (Q03181 whole entry, looked up): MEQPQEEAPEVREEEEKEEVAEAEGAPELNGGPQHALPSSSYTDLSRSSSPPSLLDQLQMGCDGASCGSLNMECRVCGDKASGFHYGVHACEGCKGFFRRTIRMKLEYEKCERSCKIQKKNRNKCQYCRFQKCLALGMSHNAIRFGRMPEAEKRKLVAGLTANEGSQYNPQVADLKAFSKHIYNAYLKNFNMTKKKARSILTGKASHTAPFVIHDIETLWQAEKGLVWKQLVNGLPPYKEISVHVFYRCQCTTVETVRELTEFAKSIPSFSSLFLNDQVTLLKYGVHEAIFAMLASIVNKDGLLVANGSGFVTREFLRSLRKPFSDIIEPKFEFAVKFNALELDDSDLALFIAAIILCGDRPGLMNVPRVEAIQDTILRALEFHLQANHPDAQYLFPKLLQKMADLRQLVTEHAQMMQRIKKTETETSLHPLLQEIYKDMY
How it was run: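 Fluorescence from cleaved LiveBLAzer B/G FRET substrate (2 h, room temperature) reports PPARd-driven beta-lactamase in HEK293H UAS-bla cells. Cells had been treated 17 h at 37 C with compound plus 300 nM final L165041.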

[13] = qHTS assay to identify small molecule antagonists of the farnesoid-X-receptor (FXR) signaling pathway - cell viability counter screen (AID 743221; active means well fitted cell-killing curve with a large enough effect in the repeat runs, not every such curve was filed as active; inconclusive means weak or mixed curves, or effect the other way; inactive means no such curve, though single readings can be large or run the other way; further: nearly all actives have a fitted effect of over 50% in size); details: FXR-bla HEK293T viability, CellTiter-Glo luminescence, 16 h; activity change, negative = cytotoxicity: at 62.6 µM (top of the series)
How it was run: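 Cytotoxicity counter screen run in the FXR-bla reporter wells: HEK 293T cells exposed to compound with 50 uM (final) chenodeoxycholic acid for 16 h, 37 C, then viability measured by CellTiter-Glo luminescence after 30 min, room temperature.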

[14] = qHTS assay to identify small molecule antagonists of the peroxisome proliferator-activated receptor delta (PPARd) signaling pathway - cell viability counter screen (AID 743213; active means well fitted curve in the direction sought with a large enough effect in the repeat runs; inconclusive means weak or mixed curves; inactive means no such curve, though single readings can be large; an effect the other way counts as inactive or inconclusive; further: nearly all actives have a fitted effect of over 50% in size); details: PPARd-bla HEK293H viability, CellTiter-Glo luminescence, 17 h; viability change, negative = cytotoxic: at 62 µM (top of the series) unless noted
How it was run: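 In this counter screen, HEK293H cells carrying a UAS-beta-lactamase reporter are co-treated with test compounds and 300 nM L165041 (final) for 17 h at 37 C; cell viability is quantified by CellTiter-Glo luminescence.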

[15] = target: Nuclear receptor ROR-gamma (Homo sapiens) (UniProt P51449); test: qHTS assay to identify small molecule antagonists of the retinoid-related orphan receptor gamma (ROR-gamma) signaling pathway (AID 1159521; active means well fitted curve in the direction sought with a large enough effect in the repeat runs; inconclusive means weak or mixed curves; inactive means no such curve, though single readings can be large; an effect the other way counts as inactive or inconclusive; further: nearly all actives have a fitted effect of over 50% in size)
How it was run: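 Antagonist read-out: drop in luminescence (ONE-Glo) from an RORE-LUC reporter in CHO cells with doxycycline-inducible ROR-gamma; 2 hr compound pretreatment, 1 uM doxycycline, 16 hr incubation at 37 C.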

[16] = target: Bile acid receptor (Homo sapiens) (UniProt Q96RI1); test: qHTS assay to identify small molecule agonists of the farnesoid-X-receptor (FXR) signaling pathway (AID 743220; active means well fitted activation curve with a large enough effect in the signal ratio in the repeat runs, not every such curve was filed as active; inconclusive means weak or mixed curves, or effect the other way; the % refers to the signal ratio); details: HEK293T FXR-UAS-bla, beta-lactamase FRET ratio, 16 h; activation: at 62.6 µM (top of the series) unless noted
How it was run: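 FXR-UAS-bla HEK 293T cells carrying a UAS-driven beta-lactamase reporter were plated for 5 h at 37C/5% CO2, then exposed to DMSO-dissolved Tox21 10K compounds for 16 h at 37C. A LiveBLAzer B/G FRET substrate was loaded for 2 h at room temperature before fluorescence reading.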

[17] = target: Vitamin D3 receptor (Homo sapiens) (UniProt P11473); test: qHTS assay to identify small molecule agonists of the vitamin D receptor (VDR) signaling pathway (AID 743222); details: HEK293T VDR-UAS-bla, beta-lactamase FRET ratio, 16 h; activation: at 63.5 µM (top of the series) unless noted
How it was run: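 Following 4 h attachment at 37C, VDR-bla cells (2,000 per well) received DMSO-dissolved compounds or controls. After 16 h incubation, LiveBLAzer B/G FRET substrate was added and fluorescence read 2 h later at room temperature.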

[18] = target: Peroxisome proliferator-activated receptor delta (Homo sapiens) (UniProt Q03181); test: qHTS assay to identify small molecule agonists of the peroxisome proliferator-activated receptor delta (PPARd) signaling pathway (AID 743212); details: HEK293H PPARd-UAS-bla, beta-lactamase FRET ratio, 17 h; activation: at 62.6 µM (top of the series) unless noted
How it was run: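 Cells expressing a UAS-driven beta-lactamase reporter (PPARd-bla HEK293H) were given test compounds after a 5 h settle and kept at 37 C. Reporter activity was then measured as FRET fluorescence using LiveBLAzer B/G substrate.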
Potency means the concentration at half of the fitted maximal effect; tags describe the fitted curve by direction and shape or compound fluorescence and quenching.

Compound: Cc1cc2nc3ccc(=[N+](C)C)cc-3sc2cc1N
- Potency [1]: active: 10.6 µM
- Potency [2]: inconclusive: 2.98 µM [cytotoxic, partial curve, poor fit]
- Potency [3]: inactive
- Potency [4]: inconclusive: 5.31 µM [cytotoxic, partial curve, poor fit]
- Potency [5]: inactive
- Potency [6]: inactive
- Potency [7]: inconclusive: 13.3 µM [cytotoxic, partial curve]
- Potency [8]: inconclusive: 4.25 µM [cytotoxic, partial curve, poor fit]
- Potency [9]: inconclusive: 0.477 µM [falling, partial curve, poor fit]
- activation [10]: inconclusive: -9.87% [at 35.3 µM]
- Potency [11]: inconclusive: 1.34 µM [cytotoxic, full curve]

Compound: OCC1CC=CCC1 (stereo unspecified)
- Potency [12]: inactive
- Potency [2]: inconclusive: 1.38 µM [rising, partial curve, poor fit]
- Potency [13]: inactive
- Potency [6]: inactive
- Potency [7]: inconclusive: 61.1 µM [rising, partial curve, poor fit]
- Potency [8]: inactive
- Potency [9]: inactive
- activation [10]: inconclusive: 5.1%

Compound: OC(CCN1CCCCC1)(c1ccccc1)c1ccccc1
- Potency [6]: inactive

Compound: CCCCCCCC(=O)Oc1c(Br)cc(C#N)cc1Br
- Potency [14]: inconclusive: 435 nM [cytotoxic, full curve, poor fit]
- Potency [1]: inconclusive: 61.4 µM [rising, partial curve, poor fit]
- Potency [2]: inconclusive: 9.74 µM [cytotoxic, full curve]
- Potency [4]: inconclusive: 54.8 µM
- Potency [5]: inconclusive: 24.5 µM [cytotoxic, full curve]
- Potency [6]: inconclusive: 54.8 µM [cytotoxic]
- Potency [7]: inconclusive: 30.5 µM [cytotoxic, partial curve, poor fit]
- Potency [10]: inconclusive: 24.5 µM

Compound: CO[C@H]1O[C@H](CO)[C@@H](O)[C@H](O)[C@H]1O
- Potency [3]: inactive
- Potency [6]: inconclusive: 60.9 µM [cytotoxic, single point]
- Potency [7]: inactive
- Potency [9]: inactive
- Potency [11]: inactive

Compound: c1ccc(CNCc2ccccc2)cc1
- Potency [14]: inconclusive: 1100 nM [cytotoxic, single point]
- Potency [6]: inactive
- Potency [7]: inactive
- Potency [10]: inconclusive: 11 µM [inhibitor, partial curve, poor fit]

Compound: O=C(O)COCCN1CCN(C(c2ccccc2)c2ccc(Cl)cc2)CC1 (stereo unspecified)
- Potency [12]: inactive
- activity change, negative = inhibition [3]: inconclusive: 41.9%
- Potency [6]: inconclusive: 0.756 µM [cytotoxic, partial curve, poor fit]
- Potency [7]: inconclusive: 0.0033 µM [rising, full curve, poor fit]
- Potency [15]: inactive
- Potency [10]: inactive

Compound: Nc1cccc2c(N)cccc12
- Potency [14]: inconclusive: 969 nM [cytotoxic, single point]
- Potency [2]: inconclusive: 1.22 µM [rising, full curve, poor fit]
- Potency [16]: inconclusive: 76.9 µM [rising, single point]
- Potency [13]: inconclusive: 21.9 µM [phenotype inactive, single point]
- activation [17]: inconclusive: -0.719% [at 81.1 µM]
- Potency [3]: inconclusive: 0.195 µM [fluorescent]
- Potency [5]: inconclusive: 0.871 µM [cytotoxic, full curve, poor fit]
- Potency [6]: inconclusive: 0.195 µM [cytotoxic, single point]
- Potency [7]: inconclusive: 0.122 µM [cytotoxic, partial curve, poor fit]
- Potency [8]: inconclusive: 4.36 µM [rising, full curve]
- Potency [9]: inconclusive: 24.5 µM [partial curve, poor fit]
- Potency [10]: inconclusive: 8.71 µM [fluorescent, full curve, poor fit]
- Potency [11]: inconclusive: 9.77 µM [cytotoxic]

Compound: CO[C@H]1C=CO[C@@]2(C)Oc3c(C)c(O)c4c(O)c(c5c(c4c3C2=O)=NC2(CCN(CC(C)C)CC2)N=5)NC(=O)/C(C)=C\C=C/[C@H](C)[C@H](O)[C@@H](C)[C@@H](O)[C@@H](C)[C@H](OC(C)=O)[C@@H]1C
- Potency [18]: inconclusive: 10.7 µM [rising, partial curve]
- Potency [12]: inconclusive: 8.52 µM [fluorescent, full curve, poor fit]
- Potency [1]: inconclusive: 60.3 µM
- Potency [13]: inconclusive: 53.8 µM [falling, single point]
- Potency [17]: inconclusive: 9.56 µM [rising, full curve]
- activity change, negative = inhibition [3]: inconclusive: 9.89%
- Potency [6]: inactive
- Potency [7]: inconclusive: 67.1 µM [cytotoxic, partial curve, poor fit]
- Potency [15]: active: 53.3 µM
- Potency [9]: inactive
- Potency [10]: inconclusive: 15.1 µM [rising, full curve, poor fit]

Compound: Clc1cc(Cl)c(Cl)cc1Cl
- Potency [6]: inconclusive: 49 µM [cytotoxic, partial curve, poor fit]
- Potency [7]: inactive

Compound: C/C=C(C)/C=C/C=C(C)C
- Potency [14]: inconclusive: 54.3 µM [cytotoxic, single point] and inactive
- Potency [2]: inconclusive: 17.2 nM [rising, full curve, poor fit] and inconclusive: 15.5 nM [rising, full curve, poor fit]
- Potency [6]: inconclusive: 24.3 µM [cytotoxic, single point]
- Potency [7]: inconclusive: 53.8 µM [cytotoxic, partial curve, poor fit]
- Potency [9]: inconclusive: 43.1 µM [activator, partial curve, poor fit]
- activation [9]: inconclusive: 14.7%
- Potency [10]: inconclusive: 60.9 µM [fluorescent, partial curve, poor fit] and inactive
